Here are results for 14 cell lines from the supplement of paper PMC4967469.

The IC50 comes from the fitted curve, where viability falls to half of the control; a fit beyond the top or the lowest dose is shown as a bound at that dose. AUC, from the same fit, is the share of area under the viability curve across the 256-fold dose range; the more sensitive the line, the further below 1. For some of these results: An inferred top dose is not printed in the source and was worked back from the curve model. For some of these results: An entry number marks a drug with two screens in the source, which often give different values.

Common to all, as to experiment: Viability of human cancer cell lines after 72 h of drug (GDSC screen)
Compound in assay [1]: CCn1c(-c2nonc2N)nc2c(C#CC(C)(C)O)ncc(OC[C@H]3CCCNC3)c21 [GSK690693]
The settings on record: top dose 10.24 µM; top dose inferred. Here is the method: (§1)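 Human cancer cell lines in 384-well plates, medium with 10% serum, drug for 72 h over a 256-fold dose range (nine 2-fold or five 4-fold steps up to the top dose). Adherent lines were fixed and stained with the nucleic acid dye Syto60, suspension lines read with resazurin; signal relative to control wells, capped at 0 and 100%. One two-parameter sigmoid per drug and line, fitted in a mixed model over all curves with the slope shared within a line.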

Compound in assay [2]: COc1cc2c(NC3CCN(C(C)C)CC3)nc(C3CCCCC3)nc2cc1OCCCN1CCCC1 [UNC0638]
Here is the method:
as §1

Compound in assay [3]: Cc1cccc(-c2[nH]c(C(C)(C)C)nc2-c2ccc3c(c2)OCO3)n1 [SB-505124]
The settings on record: top dose 10 µM; top dose inferred. The procedure:
as §1

Compound in assay [4]: O=C(NCCCNc1nc(Nc2cccc(NC(=O)N3CCCC3)c2)ncc1I)c1cccs1 [BX-795]
The settings on record: top dose 5 µM; top dose inferred. The procedure: as §1

Compound in assay [5]: Oc1cccc(-c2nc(N3CCOCC3)c3oc4ncccc4c3n2)c1 [PI-103]
To be noted: top dose 10.24 µM. Here is the method:
as §1

The mark [6] stands for this setting: top dose 20 µM, screen: GDSC drug entry 1236, top dose inferred.
[7] abbreviates: top dose 40 µM, screen: GDSC drug entry 245.

With MCF7 (breast, adherent), the AUC in assay [1] stood at 0.986; in assay [2] (setting [6]) it was 0.962; in assay [2] (setting [7]), 0.981; in assay [3], 0.98; in assay [4], 0.931. The IC50 (usually the concentration needed to halve the response being measured) in assay [1] was greater than 10.2 µM; in assay [2] (setting [6]), greater than 20 µM; in assay [2] (setting [7]), greater than 40 µM; in assay [3] it was greater than 10 µM; in assay [4], greater than 5 µM.

For ML-1 (thyroid, adherent), the AUC in assay [1] is 0.984; in assay [2] (setting [6]), 0.982; in assay [2] (setting [7]), 0.876; in assay [3] it was 0.982; in assay [5], 0.762. In addition, the IC50 in assay [1] was greater than 10.2 µM; in assay [2] (setting [6]), greater than 20 µM; in assay [2] (setting [7]), greater than 40 µM; in assay [3], greater than 10 µM; in assay [5], 4.25 µM.

For the cell line MM1S (myeloma, suspension), in assay [4], the AUC turned out to be 0.893 and the IC50 was greater than 5 µM.

Turning to “NCI-H196 (small cell lung carcinoma, adherent)”, the AUC was found to be 0.988 in assay [1]; 0.829 in assay [2] (setting [6]); 0.717 in assay [2] (setting [7]); 0.987 in assay [3]; 0.838 in assay [5]. The IC50 in assay [1] is greater than 10.2 µM; in assay [2] (setting [6]) it was 13.2 µM; in assay [2] (setting [7]) it was 10.7 µM; in assay [3], greater than 10 µM; in assay [5] it was 7.38 µM.

NCI-H929 (myeloma, suspension): the AUC was determined as 0.817 in assay [2] (setting [6]), 0.965 in assay [3] and 0.699 in assay [4]. The IC50 in assay [2] (setting [6]) is 9.17 µM; in assay [3], greater than 10 µM; in assay [4], 1.03 µM.

Consider “NCI-H1299 (large cell lung carcinoma, adherent)”, for which the AUC is 0.968 in assay [1]; 0.864 in assay [2] (setting [6]); 0.794 in assay [2] (setting [7]); 0.98 in assay [3]; 0.825 in assay [5]. Besides, the IC50 was greater than 10.2 µM in assay [1]; greater than 20 µM in assay [2] (setting [6]); 23.4 µM in assay [2] (setting [7]); greater than 10 µM in assay [3]; 8.08 µM in assay [5].

As for “NCI-H1573 (lung adenocarcinoma, adherent)”, the AUC is 0.991 in assay [1]; 0.985 in assay [2] (setting [6]); 0.969 in assay [2] (setting [7]); 0.99 in assay [3]; 0.971 in assay [5]. Moreover, the IC50 in assay [1] was greater than 10.2 µM; in assay [2] (setting [6]) it was greater than 20 µM; in assay [2] (setting [7]), greater than 40 µM; in assay [3] it was greater than 10 µM; in assay [5], greater than 10.2 µM.

For the cell line “NCI-H1793 (lung adenocarcinoma, adherent)”, the AUC was found to be 0.982 in assay [1]; 0.963 in assay [2] (setting [6]); 0.872 in assay [2] (setting [7]); 0.98 in assay [3]; 0.539 in assay [5]. Moreover, the IC50 is greater than 10.2 µM in assay [1]; greater than 20 µM in assay [2] (setting [6]); greater than 40 µM in assay [2] (setting [7]); greater than 10 µM in assay [3]; 0.853 µM in assay [5].

“NCI-H1915 (large cell lung carcinoma, adherent)”: the AUC in assay [1] is 0.988; in assay [2] (setting [6]), 0.847; in assay [2] (setting [7]), 0.74; in assay [3], 0.985; in assay [5], 0.836. The IC50 in assay [1] was greater than 10.2 µM; in assay [2] (setting [6]), 15.2 µM; in assay [2] (setting [7]), 12.4 µM; in assay [3], greater than 10 µM; in assay [5] it was 6.97 µM.

Turning to “NCI-H2066 (small cell lung carcinoma, adherent)”, the AUC was found to be 0.963 in assay [2] (setting [6]), 0.954 in assay [3] and 0.971 in assay [4]. In addition, the IC50 is greater than 20 µM in assay [2] (setting [6]), greater than 10 µM in assay [3] and greater than 5 µM in assay [4].

As to “NCI-H2170 (lung squamous cell carcinoma, adherent)”, the AUC worked out at 0.987 in assay [1]; 0.94 in assay [2] (setting [6]); 0.89 in assay [2] (setting [7]); 0.949 in assay [3]; 0.913 in assay [5]. Besides, the IC50 in assay [1] is greater than 10.2 µM; in assay [2] (setting [6]) it was greater than 20 µM; in assay [2] (setting [7]), greater than 40 µM; in assay [3], greater than 10 µM; in assay [5], greater than 10.2 µM.

Turning to “NCI-H2228 (lung adenocarcinoma, adherent)”, the AUC in assay [1] turned out to be 0.884; in assay [2] (setting [6]) it was 0.821; in assay [2] (setting [7]), 0.931; in assay [3], 0.963; in assay [5], 0.807. Besides, the IC50 was greater than 10.2 µM in assay [1]; greater than 20 µM in assay [2] (setting [6]); greater than 40 µM in assay [2] (setting [7]); greater than 10 µM in assay [3]; 8.92 µM in assay [5].

PC-3 (prostate, adherent): the AUC came out at 0.866 in assay [1]; 0.969 in assay [2] (setting [6]); 0.869 in assay [2] (setting [7]); 0.971 in assay [3]; 0.834 in assay [4]. For the same cell line, the IC50 was greater than 10.2 µM in assay [1]; greater than 20 µM in assay [2] (setting [6]); greater than 40 µM in assay [2] (setting [7]); greater than 10 µM in assay [3]; 4.31 µM in assay [4].

PCI-38 (head and neck, adherent): the AUC in assay [1] worked out at 0.956; in assay [2] (setting [6]), 0.94; in assay [2] (setting [7]) it was 0.753; in assay [3], 0.932; in assay [5], 0.857. For the same cell line, the IC50 in assay [1] is greater than 10.2 µM; in assay [2] (setting [6]) it was greater than 20 µM; in assay [2] (setting [7]), 13.4 µM; in assay [3], greater than 10 µM; in assay [5], 8.37 µM.
